The source gives no read counts; variants with many changes may rest on few reads.
B1: CPEB3 Ribozyme (parent)
chain: UAACAGGGGGCCACAGCAGAAGCGUUCACGUCGCAGCCCCUGUCAGAUUCUGGUGAAUCUGCGAAUUCUGCUGUAUAUCUC

Variants of: B1
Assay: self-cleavage, relative activity (ratio to wild type); higher = more cleavage; in vitro, sequencing
How it was run: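 CPEB3 self-cleaving ribozyme mutant libraries were made by rounds of error-prone PCR, barcoded, and transcribed in vitro with T7 RNA polymerase for 5 hours at 37°C. Cleavage occurred during transcription and a 15 min DNase I step before EDTA stop. RNAs were reverse transcribed with template switching and Illumina-sequenced, with DNA sequencing mapping barcodes to variants. Relative activity is the variant's cleaved/total read fraction divided by wild type's (minimum 5 reads), averaged across three batches.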

Row | Variant | self-cleavage
1 | U26C U43C A45G U51C A57G A65G | 0.35
2 | U26C U43C A47G A65U | 0.12
3 | U26C U43C A56U | 0.24
4 | U26C U43C A56U U72A A77U | 0.42
5 | U26C U43C U48A A77U | 0.36
6 | U26C U43C U48C U58C U74C | 0.18
7 | U26C U43C U60C | 0.28
8 | U26C U43C U66C U67A | 0.38
9 | U26C U43C U69A A77U | 0.35
10 | U26C U43C U69C U78C | 0.12
11 | U26C U43C U72C | 0.48
12 | U26C U43G A57U C71A U74G | 0.15
13 | U26C U48A U69C | 0.41
14 | U26C U48A U80C | 0.32
15 | U26C U48C A57G | 0.48
16 | U26C U48C A57U G63A U74A | 0.18
17 | U26C U48C A64U U66C | 0.19
18 | U26C U48C U51C U60A A75G | 0.04
19 | U26C U48C U54A U60A | 0.2
20 | U26C U48C U60C U78C U80C | 0.31
21 | U26C U48C U66C | 0.4
22 | U26C U48C U67C U72A | 0.14
23 | U26C U49A U60C | 0.15
24 | U26C U49C U58C C59A U69A U78C | 0.09

Row | Variant | self-cleavage
25 | U26C U49C U72C | 0.19
26 | U26C U49G U54A | 0.15
27 | U26C U51A U60C | 0.12
28 | U26C U51A U69A U80C | 0.15
29 | U26C U51A U69C U76C | 0.22
30 | U26C U51C A56G | 0.19
31 | U26C U51C G52U | 0.41
32 | U26C U51C U58A | 0.32
33 | U26C U51C U58C A64G U69C C71U | 0.11
34 | U26C U51C U67C C68A | 0.26
35 | U26C U51C U72C | 0.52
36 | U26C U51C U78A | 0.55
37 | U26C U51G U78C | 0.3
38 | U26C U54A C71G U78C | 0.09
39 | U26C U54C A56G U69A U76C | 0.14
40 | U26C U54C A64G C71U | 0.11
41 | U26C U54C A65C U72C | 0.16
42 | U26C U54C C62U C68A A75G U80C | 0.06
43 | U26C U54C G73U | 0.87
44 | U26C U54C U74C | 0.81
45 | U26C U54C U80C | 0.49
46 | U26C U58A C59A U80G | 0.16
47 | U26C U58C U80A | 0.14
48 | U26C U58G U72C A77U | 0.15

Row | Variant | self-cleavage
49 | U26C U60A U78C | 0.26
50 | U26C U60C A77G | 0.33
51 | U26C U60C U72A | 0.07
52 | U26C U66C A75G | 0.37
53 | U26C U67A U72C U78C | 0.26
54 | U26C U67G C79A | 0.12
55 | U26C U69A U72C | 0.33
56 | U26C U69C U72C | 0.35
57 | U26C U69C U76C U80C | 0.47
58 | U26C U69C U80C | 0.22
59 | U26C U72A U74A | 0.5
60 | U26C U72A U74C | 0.72
61 | U26C U72C U76C | 0.75
62 | U26C U72C U78C | 0.47
63 | U26C U76C U80A | 0.6
64 | U26G A28G G36U U74C | 0.2
65 | U26G A35C A45G A57G A64U U66A | 0.05
66 | U26G A35G U41A A56G C62U A64G U74A | 0.06
67 | U26G A35U U60C | 0.05
68 | U26G A45G U69A | 0.08
69 | U26G A47G U49C U76A | 0.06
70 | U26G A64G U72G U78A | 0.17
71 | U26G C34U A64G | 0.05
72 | U26G C39U A56G A57U U60A | 0.09

Row | Variant | self-cleavage
73 | U26G C44U A56G | 0.24
74 | U26G C50U U76C | 0.33
75 | U26G C71U U74A | 0.25
76 | U26G G30A U72A | 0.05
77 | U26G G61C U78A | 0.12
78 | U26G U31A A64G U72A U80C | 0.05
79 | U26G U31C U78C | 0.09
80 | U26G U31C U80C | 0.33
81 | U26G U41C A47U U48C C71A | 0.17
82 | U26G U41C A56G | 0.53
83 | U26G U41C U69C | 0.08
84 | U26G U69C U72C | 0.04
85 | U26G U72C U78A | 0.1
86 | C27A A28C C32A U67A U74C | 0.05
87 | C27A A28G U60A | 0.12
88 | C27A A28U A45G A56G U72A A77U | 0.07
89 | C27A A35G U41C A45C U51C A65G U67C | 0.02
90 | C27A A35U U43C U54C | 0.29
91 | C27A A45C G70U U78C | 0.13
92 | C27A A45G U58A U80A | 0.2
93 | C27A A45U U49A U51C | 0.09
94 | C27A A47U U48A A65G U74A | 0.05
95 | C27A A47U U58A A65G | 0.13
96 | C27A A56G U58C | 0.13

Row | Variant | self-cleavage
97 | C27A A56U U78C | 0.14
98 | C27A C32U C37G U67C U72A U80C | 0.12
99 | C27A C32U U43C | 0.46
100 | C27A C39U C44U A45G | 0.13
101 | C27A C40A U49A A64G | 0.17
102 | C27A U31A A65G G70U U78C | 0.05
103 | C27A U31C C37A U66A U78C | 0.1
104 | C27A U31C C40U U41G U51C | 0.19
105 | C27A U41A A45C A56G U60G | 0.08
106 | C27A U54A U58A | 0.19
107 | C27A U54A U69C A75U | 0.19
108 | C27A U60C U74A | 0.29
109 | C27A U69A A75G U80C | 0.08
110 | C27A U69C A75U | 0.13
111 | C27A U74G U78A | 0.19
112 | C27G A28G G73A U78C | 0.29
113 | C27G A35G A65G | 0.1
114 | C27G A35U A64G U76C | 0.11
115 | C27G A56U U58A | 0.04
116 | C27G C32U U74G A75G U78A | 0.04
117 | C27G C37G A45U U49A A64G A77G | 0.1
118 | C27G C44U C59A | 0.18
119 | C27G G33U U54A | 0.07
120 | C27G U43A U72A | 0.07

Row | Variant | self-cleavage
121 | C27G U43C A64C A65G U67C | 0.25
122 | C27G U43C U58C G63U | 0.18
123 | C27G U43C U67C C68U | 0.13
124 | C27G U58C U69A U72C A75U U80C | 0.06
125 | C27G U69C U76C U80C | 0.02
126 | C27U A28U A56G | 0.19
127 | C27U A35G C50U | 0.39
128 | C27U A35G U43A | 0.26
129 | C27U A45G U72C C79G | 0.1
130 | C27U A47G U51C A56U A57G | 0.13
131 | C27U A56C U72A | 0.15
132 | C27U A57G U66C U72A | 0.23
133 | C27U A57G U80A | 0.32
134 | C27U C29A C62U U66C U78C | 0.16
135 | C27U C39U U41C A57U U66C | 0.1
136 | C27U C44A A57G | 0.14
137 | C27U G30A U80C | 0.47
138 | C27U G33A A35G A57G U58C U60C | 0.12
139 | C27U G61C A64G | 0.09
140 | C27U U31C A35U U60C U69A | 0.08
141 | C27U U41C A65G U80A | 0.19
142 | C27U U41C U43C U60C U67C C68U | 0.07
143 | C27U U41G U49C U51C | 0.04
144 | C27U U41G U54C U69A | 0.07

Row | Variant | self-cleavage
145 | C27U U43C A45U | 0.17
146 | C27U U43C A56G | 0.13
147 | C27U U43C G61C G70C | 0.1
148 | C27U U48A U54A U78C | 0.2
149 | C27U U48C U80A | 0.09
150 | C27U U49C A56G | 0.08
151 | C27U U49C G53A A57G | 0.16
152 | C27U U49C U60C | 0.21
153 | C27U U54A A57G U69C | 0.08
154 | C27U U54A C62U A65G | 0.16
155 | C27U U54G G55C U60C U67C | 0.08
156 | C27U U58C U66C U69A U78C | 0.09
157 | C27U U58C U69G | 0.18
158 | C27U U60A A75U | 0.23
159 | C27U U60C U72C U78A | 0.11
160 | C27U U60C U80C | 0.23
161 | C27U U66C U72A | 0.08
162 | C27U U69A U72A | 0.05
163 | A28C A35G C44A | 0.41
164 | A28C A35U U51A U54A C79A | 0.16
165 | A28C A35U U66C | 0.43
166 | A28C A35U U72C | 0.24
167 | A28C A45G U48C G61A G63A | 0.14

— the RNAGym collection of RNA variant scans (doi:10.1093/nar/gkz1192)
